{
  "source": "the supplement of paper PMC8728848",
  "assay_in_all_cases": "glycan array binding signal (z-score within array); higher = stronger binding",
  "conditions_in_all_cases": "glycan notation: IUPAC condensed, linker removed",
  "key": {"Gal(a1-3)Gal": {"molecular_target": "Gal(a1-3)Gal", "method_in_brief": "(§1)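 Columns mapping to the same glycan were averaged after glycan names were converted to IUPAC-condensed notation. The data come from 3228 arrays in the Consortium for Functional Glycomics database, limited to those with an available protein sequence. Binding is reported as a within-array Z-score averaged across arrays of one protein sequence and across linkers.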"}, "Gal(a1-3)Gal(b1-3)GlcNAc": {"molecular_target": "Gal(a1-3)Gal(b1-3)GlcNAc", "method_in_brief": "as §1"}, "Gal(a1-3)Gal(b1-4)Glc": {"molecular_target": "Gal(a1-3)Gal(b1-4)Glc", "method_in_brief": "as §1"}, "Gal(a1-3)Gal(b1-4)GlcNAc": {"molecular_target": "Gal(a1-3)Gal(b1-4)GlcNAc", "method_in_brief": "as §1"}, "[1]": {"molecular_target": "Gal(a1-3)Gal(b1-4)[Fuc(a1-3)]GlcNAc", "method_in_brief": "as §1"}, "[2]": {"molecular_target": "Gal(a1-3)Gal(b1-4)[Fuc(a1-3)]GlcNAc(b1-2)Man(a1-3)[Gal(a1-3)Gal(b1-4)[Fuc(a1-3)]GlcNAc(b1-2)Man(a1-6)]Man(b1-4)GlcNAc(b1-4)GlcNAc", "method_in_brief": "as §1"}, "Gal(a1-3)GalNAc": {"molecular_target": "Gal(a1-3)GalNAc", "method_in_brief": "as §1"}, "[3]": {"molecular_target": "Gal(a1-3)[Gal(a1-4)]Gal(b1-4)GlcNAc", "method_in_brief": "as §1"}, "Gal(a1-4)Gal(b1-4)Glc": {"molecular_target": "Gal(a1-4)Gal(b1-4)Glc", "method_in_brief": "as §1"}, "Gal(a1-4)Gal(b1-4)GlcNAc": {"molecular_target": "Gal(a1-4)Gal(b1-4)GlcNAc", "method_in_brief": "as §1"}, "[4]": {"molecular_target": "Gal(a1-4)Gal(b1-4)GlcNAc(b1-3)Gal(b1-4)Glc", "method_in_brief": "as §1"}, "Gal(a1-4)GlcNAc": {"molecular_target": "Gal(a1-4)GlcNAc", "method_in_brief": "as §1"}, "Gal(a1-6)Glc": {"molecular_target": "Gal(a1-6)Glc", "method_in_brief": "as §1"}, "Gal(b1-2)Gal": {"molecular_target": "Gal(b1-2)Gal", "method_in_brief": "as §1"}, "Gal(b1-3)Gal": {"molecular_target": "Gal(b1-3)Gal", "method_in_brief": "as §1"}, "Gal(b1-3)Gal(b1-4)GlcNAc": {"molecular_target": "Gal(b1-3)Gal(b1-4)GlcNAc", "method_in_brief": "as §1"}, "[5]": {"molecular_target": "Gal(b1-3)Gal(b1-4)GlcNAc(b1-2)Man(a1-3)[Gal(b1-3)Gal(b1-4)GlcNAc(b1-2)Man(a1-6)]Man(b1-4)GlcNAc(b1-4)GlcNAc", "method_in_brief": "as §1"}, "Gal(b1-3)GalNAc": {"molecular_target": "Gal(b1-3)GalNAc", "method_in_brief": "as §1"}, "[6]": {"molecular_target": "Gal(b1-3)GalNAc(a1-3)[Fuc(a1-2)]Gal(b1-4)Glc", "method_in_brief": "as §1"}, "[7]": {"molecular_target": "Gal(b1-3)GalNAc(a1-3)[Fuc(a1-2)]Gal(b1-4)GlcNAc", "method_in_brief": "as §1"}, "[8]": {"molecular_target": "Gal(b1-3)GalNAc(b1-3)Gal(a1-4)Gal(b1-4)Glc", "method_in_brief": "as §1"}, "[9]": {"molecular_target": "Gal(b1-3)GalNAc(b1-4)Gal(b1-4)Glc", "method_in_brief": "as §1"}, "[10]": {"molecular_target": "Gal(b1-3)GalNAc(b1-4)[Neu5Ac(a2-3)]Gal(b1-4)Glc", "method_in_brief": "as §1"}, "Gal(b1-3)GlcNAc": {"molecular_target": "Gal(b1-3)GlcNAc", "method_in_brief": "as §1"}, "[11]": {"molecular_target": "Gal(b1-3)GlcNAc(b1-2)Man(a1-3)[Gal(b1-3)GlcNAc(b1-2)Man(a1-6)]Man(b1-4)GlcNAc(b1-4)GlcNAc", "method_in_brief": "as §1"}, "[12]": {"molecular_target": "Gal(b1-3)GlcNAc(b1-2)Man(a1-3)[Gal(b1-3)GlcNAc(b1-2)Man(a1-6)]Man(b1-4)GlcNAc(b1-4)[Fuc(a1-6)]GlcNAc", "method_in_brief": "as §1"}, "[13]": {"molecular_target": "Gal(b1-3)GlcNAc(b1-3)Gal(b1-3)GlcNAc", "method_in_brief": "as §1"}, "[14]": {"molecular_target": "Gal(b1-3)GlcNAc(b1-3)Gal(b1-4)Glc", "method_in_brief": "as §1"}, "[15]": {"molecular_target": "Gal(b1-3)GlcNAc(b1-3)Gal(b1-4)GlcNAc", "method_in_brief": "as §1"}, "[16]": {"molecular_target": "Gal(b1-3)[Fuc(a1-4)]GlcNAc", "method_in_brief": "as §1"}},
  "note": "Some of the results follow.",
  "data": [
    {"binder": "Neuropilin-2 (Homo sapiens), O60462 (protein) MDMFPLTWVFLALYFSRHQVRGQPDPPCGGRLNSKDAGYITSPGYPQDYPSHQNCEWIVYAPEPNQKIVLNFNPHFEIEKHDCKYDFIEIRDGDSESADLLGKHCGNIAPPTIISSGSMLYIKFTSDYARQGAGFSLRYEIFKTGSEDCSKNFTSPNGTIESPGFPEKYPHNLDCTFTILAKPKMEIILQFLIFDLEHDPLQVGEGDCKYDWLDIWDGIPHVGPLIGKYCGTKTPSELRSSTGILSLTFHTDMAVAKDGFSARYYLVHQEPLENFQCNVPLGMESGRIANEQISASSTYSDGRWTPQQSRLHGDDNGWTPNLDSNKEYLQVDLRFLTMLTAIATQGAISRETQNGYYVKSYKLEVSTNGEDWMVYRHGKNHKVFQANNDATEVVLNKLHAPLLTRFVRIRPQTWHSGIALRLELFGCRVTDAPCSNMLGMLSGLIADSQISASSTQEYLWSPSAARLVSSRSGWFPRIPQAQPGEEWLQVDLGTPKTVKGVIIQGARGGDSITAVEARAFVRKFKVSYSLNGKDWEYIQDPRTQQPKLFEGNMHYDTPDIRRFDPIPAQYVRVYPERWSPAGIGMRLEVLGCDWTDSKPTVETLGPTVKSEETTTPYPTEEEATECGENCSFEDDKDLQLPSGFNCNFDFLEEPCGWMYDHAKWLRTTWASSSSPNDRTFPDDRNFLRLQSDSQREGQYARLISPPVHLPRSPVCMEFQYQATGGRGVALQVVREASQESKLLWVIREDQGGEWKHGRIILPSYDMEYQIVFEGVIGKGRSGEIAIDDIRISTDVPLENCMEPISAFAGENFKVDIPEIHEREGYEDEIDDEYEVDWSNSSSATSGSGAPSTDKEKSWLYTLDPILITIIAMSSLGVLLGATCAGLLLYCTCSYSGLSSRSCTTLENYNFELYDGLKHKVKMNHQKCCSEA", "values": [
      {"measurement": "glycan array binding signal (z-score)", "setting": "Gal(a1-3)Gal", "value": -0.176},
      {"measurement": "glycan array binding signal (z-score)", "setting": "Gal(a1-3)Gal(b1-3)GlcNAc", "value": -0.573},
      {"measurement": "glycan array binding signal (z-score)", "setting": "Gal(a1-3)Gal(b1-4)Glc", "value": -0.465},
      {"measurement": "glycan array binding signal (z-score)", "setting": "Gal(a1-3)Gal(b1-4)GlcNAc", "value": 0.603},
      {"measurement": "glycan array binding signal (z-score)", "setting": "[1]", "value": 0.01},
      {"measurement": "glycan array binding signal (z-score)", "setting": "[2]", "value": 1.45},
      {"measurement": "glycan array binding signal (z-score)", "setting": "Gal(a1-3)GalNAc", "value": -0.374},
      {"measurement": "glycan array binding signal (z-score)", "setting": "[3]", "value": -0.84},
      {"measurement": "glycan array binding signal (z-score)", "setting": "Gal(a1-4)Gal(b1-4)Glc", "value": -0.73},
      {"measurement": "glycan array binding signal (z-score)", "setting": "Gal(a1-4)Gal(b1-4)GlcNAc", "value": -0.366},
      {"measurement": "glycan array binding signal (z-score)", "setting": "[4]", "value": -0.655},
      {"measurement": "glycan array binding signal (z-score)", "setting": "Gal(a1-4)GlcNAc", "value": -0.376},
      {"measurement": "glycan array binding signal (z-score)", "setting": "Gal(a1-6)Glc", "value": -0.396},
      {"measurement": "glycan array binding signal (z-score)", "setting": "Gal(b1-2)Gal", "value": -0.222},
      {"measurement": "glycan array binding signal (z-score)", "setting": "Gal(b1-3)Gal", "value": 0.352},
      {"measurement": "glycan array binding signal (z-score)", "setting": "Gal(b1-3)Gal(b1-4)GlcNAc", "value": 0.073},
      {"measurement": "glycan array binding signal (z-score)", "setting": "[5]", "value": 0.191},
      {"measurement": "glycan array binding signal (z-score)", "setting": "Gal(b1-3)GalNAc", "value": -0.026},
      {"measurement": "glycan array binding signal (z-score)", "setting": "[6]", "value": -0.835},
      {"measurement": "glycan array binding signal (z-score)", "setting": "[7]", "value": -0.532},
      {"measurement": "glycan array binding signal (z-score)", "setting": "[8]", "value": 0.117},
      {"measurement": "glycan array binding signal (z-score)", "setting": "[9]", "value": -0.961},
      {"measurement": "glycan array binding signal (z-score)", "setting": "[10]", "value": -0.024},
      {"measurement": "glycan array binding signal (z-score)", "setting": "Gal(b1-3)GlcNAc", "value": -0.116},
      {"measurement": "glycan array binding signal (z-score)", "setting": "[11]", "value": -0.398},
      {"measurement": "glycan array binding signal (z-score)", "setting": "[12]", "value": 0.048},
      {"measurement": "glycan array binding signal (z-score)", "setting": "[13]", "value": -0.591},
      {"measurement": "glycan array binding signal (z-score)", "setting": "[14]", "value": -0.42},
      {"measurement": "glycan array binding signal (z-score)", "setting": "[15]", "value": 0.253},
      {"measurement": "glycan array binding signal (z-score)", "setting": "[16]", "value": 0.255}
    ]}
  ]
}
